# Test results reported in ChEMBL document CHEMBL1201862, “PubChem BioAssay data set” (2004).
# Test system: NCI-H322M
# Assay: DTP human tumour cell line panel, 48 h
row,Structure (SMILES),GI50
1,OCCSCc1cc2c(O)c(c1)Cc1cc(CSCCO)cc(c1O)Cc1cc(CSCCO)cc(c1O)Cc1cc(CSCCO)cc(c1O)C2,inactive: 7.05 µM
2,COC(=O)c1cc(Br)c(Br)n1C,inactive: > 100 µM
3,Nc1ccccc1N,inactive: > 100 µM
4,CC(C)(C)OC(=O)N1CC(C)(C)N2C(=O)C3(CCCO3)C12 (centres undefined),inactive: > 100 µM
5,COc1cccc(/C=C2\CCC(C)(CN(C)C)C2=O)c1 (centres undefined),inactive: > 100 µM
6,Cc1nccc2c1[nH]c1cc(O)ccc12 [HARMOL HYDROCHLORIDE],inactive: 42.1 µM
7,CC(=O)N1CCN(C23OC4(N5CCN(C(C)=O)CC5)C5C6CC(C7C6C4C72)C53)CC1 (centres undefined),inactive: > 100 µM
8,Cc1c(N)nc([C@H](CC(N)=O)NC[C@H](N)C(N)=O)nc1C(=O)N[C@H](C(=O)N[C@H](C)[C@@H](O)CC(=O)N[C@H](C(=O)NC(O[C@@H]1O[C@@H](C)[C@@H](N)[C@@H](O)[C@H]1O)C(O)c1nc(-c2nc(C(=O)NCCC[S+](C)C)cs2)cs1)[C@@H](C)O)[C@H](O[C@@H]1O[C@@H](CO)[C@@H](O)[C@H](O)[C@@H]1O[C@H]1O[C@H](CO)[C@@H](O)[C@H](OC(N)=O)[C@@H]1O)c1c[nH]cn1 (some centres undefined),inactive: > 100 µM
9,CC1(C)C=C(/C=C2/N(S(=O)(=O)C(F)(F)F)C(/C=C3/N(S(=O)(=O)C(F)(F)F)C(C)(C#N)CC3(C)C)=CC2(C)C)N=C1/C=C1/CC(C)(C)C(=O)N1 (centres undefined),inactive: 13.6 µM
10,O=C1CSC(c2cccc(Cl)c2)N1c1ccc(-n2c(-c3ccccc3)nc3ccccc3c2=O)cc1 (centres undefined),inactive: > 100 µM
11,Nc1nc2c(ncn2Cc2ccc(CO)cc2)c(=O)[nH]1,inactive: > 100 µM
12,O=C(NNC(=S)Nc1cccc(Cl)c1)c1cc(-c2ccccc2)nc2ccccc12,inactive: 13.7 µM
13,FC(F)(Sc1ccccn1)c1nc2ccccc2o1,inactive: > 100 µM
14,COC(=O)CC1C(COC(C)=O)OC(n2cc(C)c(=O)[nH]c2=O)C1OC(C)=O (centres undefined),inactive: > 100 µM
15,CN1CCN(CCCCN2c3ccccc3Sc3cc(N=[N+]=[N-])ccc32)CC1,inactive: 2.31 µM
16,C=C(CN1CC2C[C@](C(=O)OC)(c3cc4ccccc4[nH]3)C1C(OC)C2OC)S(=O)(=O)c1ccccc1 (some centres undefined),inactive: 3.8 µM
17,O=c1c2nc[nH]c2n(-c2ccccc2)c(=S)n1-c1ccccc1,inactive: > 100 µM
18,O=C(NN1C(=O)/C(=C/c2ccc(Cl)cc2)N=C1c1ccccc1)c1c(Cl)c(Cl)c(Cl)c(Cl)c1-c1nc2ccccc2[nH]1,inactive: 24.8 µM
19,COc1ccc(C2C(C(=O)O)=C(COC(C)=O)Oc3cc4c(cc32)OCO4)c(OC)c1 (centres undefined),inactive: > 100 µM
20,CO[C@@H]1[C@@H](OC2OC(C)C(OC3CC(C)(O)C(OC(=O)CC(C)C)C(C)O3)C(N(C)C)C2O)[C@@H](CC=O)C[C@@H](C)C(=O)/C=C/C2O[C@H]2C[C@@H](C)OC(=O)C[C@H]1OC(C)=O (some centres undefined),inactive: 24.8 µM
21,Oc1c2c(c(O)c3ccccc13)C1(N=N2)c2ccccc2Oc2ccccc21,inactive: 14.3 µM
22,CC(C)NCCCNc1c2ccccc2nc2cccc([N+](=O)[O-])c12,active: 0.0182 µM
23,CO[C@@H]1C[C@H](OC(N)=O)[C@@H]2C=C[C@@H]3/C=C(C)/C=C/[C@@H](C)[C@H]([C@H](C)[C@H](O)[C@@H](C)NC(C)=O)OC(=O)/C=C/C=C(C)\C=C\[C@]3(C)[C@@H]2C1,active: < 0.01 µM
24,Nc1nc(Cl)c(N)c(NCC2(CO)CCC(CCc3ccccc3)C2)n1 (centres undefined),inactive: 15.7 µM
25,C[C@]12CC[C@H](O)CC1=CC[C@@H]1[C@@H]2CC[C@]2(C)C(=O)[C@@H](N3CCOCC3)C[C@@H]12,inactive: > 100 µM
26,Cc1cccc(C)c1NC(=O)CCC/C(CC(=O)c1ccc(F)cc1)=N\NC(=O)C(=O)NN,inactive: > 100 µM
27,S=C1SSC2N=CC=CC12 (centres undefined),inactive: > 100 µM
28,Cc1nc(C)c(Cc2ccccc2)o1,inactive: > 100 µM
29,C[N+]1(C)C2Cc3ccccc3C1Cc1ccccc12,inactive: > 100 µM

# Structures can show the parent of a compound that is named as a salt.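 All cell lines were grown in 96-well plates and treated with compound for 48 hours. Here, GI50 denotes the concentration required for 50% inhibition of growth.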 Active and inactive are the calls of the source. Rule as the data show it: active = GI50 up to about 1.1 µM and inactive = higher.
